Measurements as given in PubChem BioAssay AID1030 (National Center for Advancing Translational Sciences (NCATS), 2008).
Hit rate of the full screen: of about 220,000 compounds, about 16,000 (7.3%) were called active. The inconclusive results got no clear call from the source; some entries with a clear call stand among them for comparison. Calls come from the whole dose curve; as a rule, active = well fitted inhibition curve with a large enough effect (not every such curve was filed as active); inconclusive = small, poorly fitted or top-dose-only effect, or another doubt; inactive = no such curve, though single readings can be large or run the other way. Potencies of inconclusive entries are left out as doubtful fits.

biological target: Aldehyde dehydrogenase 1A1 (Homo sapiens) (UniProt P00352); assay: qHTS Assay for Inhibitors of Aldehyde Dehydrogenase 1 (ALDH1A1); conditions: Purified ALDH1A1, NADH fluorescence, propionaldehyde substrate; series mostly up to 75.3 µM
Chain of UniProt P00352 (P00352 whole entry, looked up): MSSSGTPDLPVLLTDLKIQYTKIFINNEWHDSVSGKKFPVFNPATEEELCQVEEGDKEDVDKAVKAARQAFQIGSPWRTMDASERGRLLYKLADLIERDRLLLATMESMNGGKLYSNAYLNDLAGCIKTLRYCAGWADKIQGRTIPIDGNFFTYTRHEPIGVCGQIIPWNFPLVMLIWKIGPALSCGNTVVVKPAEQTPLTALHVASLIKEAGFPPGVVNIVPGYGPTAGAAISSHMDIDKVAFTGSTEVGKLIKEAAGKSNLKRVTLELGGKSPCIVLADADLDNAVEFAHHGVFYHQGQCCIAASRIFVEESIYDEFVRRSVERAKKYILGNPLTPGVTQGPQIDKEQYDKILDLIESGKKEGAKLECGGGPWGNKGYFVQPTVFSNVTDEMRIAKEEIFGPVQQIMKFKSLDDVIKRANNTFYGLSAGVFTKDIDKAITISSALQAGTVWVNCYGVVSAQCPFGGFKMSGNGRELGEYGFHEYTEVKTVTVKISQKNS
Potency is the fitted concentration of half-maximal effect; tags give direction and shape of the fitted curve.

| Compound | Potency |
| --- | --- |
| CN(C)c1ccc(/C=C/c2nnnn2-c2ccccc2)cc1 | inconclusive [inhibitor, partial curve] |
| CCOC(=O)N1CCC(NC(=O)c2cccc3c2C(=O)N(c2ccc(OC)cc2)C3)CC1 | inconclusive [inhibitor, partial curve] |
| Cc1c(C(=O)OCC(=O)Nc2ccc(C(N)=O)cc2)cccc1[N+](=O)[O-] | inconclusive [inhibitor, partial curve] |
| CC(=O)C(Cc1ccccc1)NC(=O)CCl (stereo unspecified) | active: 22.4 µM |
| Nc1nc(CSC(=S)N2CCCCC2)nc(Nc2ccccc2)n1 | active: 25.1 µM |
| Cc1ccc(C)c(NC(=O)CCN2CC(C)OC(C)C2)c1 (stereo unspecified) | inactive |
| O=C(O)c1ccc2cc(-c3ccc(O)c(C45CC6CC(CC(C6)C4)C5)c3)ccc2c1 | inconclusive [inhibitor, single point] |
| Fc1ccc(-c2nnc(CN3CCN(c4ncc(C(F)(F)F)cc4Cl)CC3)o2)cc1 | inconclusive [inhibitor, single point] |
| CCC(C)NS(=O)(=O)c1ccc(NS(=O)(=O)c2ccc(F)cc2)cc1 (stereo unspecified) | inactive |
| O=C(Cc1ccsc1)N1CCc2c([nH]c3ccccc23)C1c1ccccn1 (stereo unspecified) | inactive |
| COc1ccccc1-n1c(CNC(=O)c2ccco2)nnc1SCC(=O)Nc1cc(C)ccc1C | inactive |
| CCOc1ccc(N2CC(C(=O)Nc3ccc(OC)c(S(=O)(=O)N4CCCCC4)c3)CC2=O)cc1 (stereo unspecified) | inactive |
| COc1ccc(Cl)cc1NC(=O)c1oc(C)nc1C | inconclusive [inhibitor, single point] |
| N=c1sccn1CC(=O)Nc1cccc(Oc2ccccc2)c1 | inconclusive [inhibitor, single point] |
| CCCn1nc2cc(C(=O)N(CC)c3ccc(OC)cc3)ccc2c1OCC | inconclusive [inhibitor, partial curve] |
| O=C(/C=C/c1ccco1)Nc1ccccc1N1CCCCC1 | inconclusive [inhibitor, single point] |
| CC1NC(=O)NC1CCCCCC(=O)Nc1ccc(F)c(Cl)c1 (stereo unspecified) | inconclusive [inhibitor, single point] |
| CS(=O)(=O)c1ccc([C@H](O)[C@H](CF)NC(=O)C(Cl)Cl)cc1 | inactive |
| c1cnc2ccc(C(c3nnnn3C3CCCCC3)N3CCCCC3)cc2c1 (stereo unspecified) | inconclusive [inhibitor, single point] |
| CC(C)n1c(/C=C/c2ccccc2)nc2ccccc21 | inconclusive [inhibitor, partial curve] |
| Cc1cc2ncn(/N=C/c3ccc(-c4ccccc4)o3)c2cc1C | inactive |
| CCn1c(/C=C/c2c[nH]c3ccccc23)nc2ccccc2c1=O | inactive |
| O=C(Nc1nc(NC(=O)c2ccco2)n(-c2ccccc2)n1)c1ccccc1 | inconclusive [inhibitor, partial curve] |
| CC(C)(C)c1ccc(OCC(=O)N2CCCCCC2)c(Br)c1 | inconclusive [inhibitor, single point] |

| Compound | Potency |
| --- | --- |
| Oc1c(/C=N/c2ncn[nH]2)ccc2ccccc12 | inconclusive [inhibitor, single point] |
| COC(=O)C1=C(C)NC(C)=C(C(=O)OC)C1c1cn(-c2ccccc2)nc1-c1ccco1 | inconclusive [inhibitor, single point] |
| CCC(C)c1ccc(NC(=S)NC(C)C2CCCO2)cc1 (stereo unspecified) | inconclusive [inhibitor, single point] |
| COc1ccc([N+](=O)[O-])cc1NC(=O)Cc1ccccc1Cl | inactive |
| O=C(Oc1cccc2c(OC(=O)N3CCCC3)cccc12)N1CCCC1 | inconclusive [inhibitor, partial curve] |
| O=C(Nc1ccc2nc(-c3cccs3)c(-c3cccs3)nc2c1)N1CCOCC1 | inconclusive [inhibitor, single point] |
| O=C(COC(=O)c1c(Cl)ccc(Cl)c1Cl)NC(=O)NCc1ccccc1 | inactive |
| Cc1c(NC(=S)NC(=O)C2CCCCC2)c(=O)n(-c2ccccc2)n1C | inactive |
| Nc1cccc2[nH]c(C(F)(F)F)nc12 | inactive |
| CCCCOc1ccc(-c2cnc3ccccc3n2)cc1 | inconclusive [inhibitor, single point] |
| CN(Cc1cc2ccccc2[nH]c1=O)C(=O)c1cccs1 | inconclusive [inhibitor, single point] |
| COC(=O)C1=C(C(=O)OC)[C@@H]2Nc3ccccc3[C@@]23C[C@@H](C(=O)OC)N(S(=O)(=O)c2c(C)noc2C)C3=N1 | inconclusive [inhibitor, single point] |
| Cc1ccc(C(CCN(Cc2ccccc2)C(=O)c2ccco2)c2ccco2)cc1 (stereo unspecified) | active: 20 µM |
| c1ccc(-c2cc3c(N4CCOCC4)ncnc3s2)cc1 | inconclusive [inhibitor, single point] |
| N#CC1=C(N)OC2=C(CCc3ccccc32)C1c1ccccc1 (stereo unspecified) | inconclusive [inhibitor, single point] |
| CC[C@@]12C=C(/C=C/c3ccccc3)[C@](CC)(C1)[C@H](c1ccccc1)CC2=O | inactive |
| Cn1cc(CN2CCCCC2CO)c(-c2ccc(Oc3ccccc3)cc2)n1 (stereo unspecified) | inconclusive [inhibitor, single point] |
| O=c1c2cc3c(cc2[nH]c(=S)n1Cc1ccco1)OCO3 | inconclusive [inhibitor, single point] |
| Cc1cccc(N2CCN(CC(=O)Nc3ccc(-n4cnnn4)cc3)CC2)c1C | inactive |
| COC(=O)CCC(=O)OC1(C)C(=O)C2=CN(c3ccccc3)C(c3ccc(OC)cc3)=CC2=C(Br)C1=O (stereo unspecified) | active: 3.55 µM |
| CCOC(=O)N1CCN(C(=O)C2CCN(C(=O)c3cc4sccc4n3CC)CC2)CC1 | inactive |
| COc1cc2nc(CN3CCN(S(=O)(=O)c4ccc(C)c(C)c4)CC3)[nH]c(=O)c2cc1OC | inconclusive [inhibitor, full curve] |
| COc1ccc(-c2nc(C#N)c(NCc3ccco3)o2)cc1 | inconclusive [inhibitor, partial curve] |
| CC(C)c1nnc(SCC(=O)NCc2ccc3c(c2)OCO3)n1C | inactive |

| Compound | Potency |
| --- | --- |
| CC(=O)c1ccc(NC(=O)c2ccc(S(=O)(=O)N3CCCC3)cc2)cc1 | inconclusive [inhibitor, partial curve] |
| Cn1c(=O)c(C(=O)CN2CCCCCC2)c(N)n(Cc2ccccc2)c1=O | inconclusive [inhibitor, single point] |
| CC(C)NC(=O)CCCOc1ccc(Cl)cc1Cl | inactive |
| CCN(CC)CCN(C(=O)c1ccc(N2C(=O)CCC2=O)cc1)c1nc2cc3c(cc2s1)OCO3 | active: 20 µM |
| Cc1ccc(NC(=O)Nc2cccc(Cl)c2)c(C(=O)O)c1 | inconclusive [inhibitor, partial curve] |
| O=C(Nc1cccc(C(F)(F)F)c1)c1cc2c(s1)-c1ccccc1OC2 | inconclusive [inhibitor, partial curve] |
| Cc1nn(C)c(Cl)c1NC(=O)OCc1ccc(Cl)cc1Cl | inactive |
| CC(/C=C/C=C/c1ccccc1)=N\NC(=O)c1cccnc1 | inconclusive [inhibitor, single point] |
| CC(CCc1ccco1)NC(=O)CSc1cc(=O)n(C)c2ccccc12 (stereo unspecified) | inconclusive [inhibitor, single point] |
| CCC(=O)N1CCN(c2cc(NCC3CCCO3)c(F)cc2[N+](=O)[O-])CC1 (stereo unspecified) | inconclusive [inhibitor, single point] |
| COc1cc(/C=C/c2sc3ccccc3[n+]2CCCS(=O)(=O)[O-])ccc1O | inconclusive [inhibitor, single point] |
| Cc1ccc(S(=O)(=O)Oc2ccc(C3C4=C(CCCC4=O)N(CCC(=O)O)C4=C3C(=O)CCC4)cc2Cl)cc1 | inconclusive [inhibitor, partial curve] |
| Cn1c2ccccc2c2ncn(Cc3ccc(F)cc3)c(=O)c21 | inconclusive [inhibitor, full curve] |
| CN(C)C=NC(=O)c1cc(C(=O)c2ccc(C(C)(C)C)cc2)c[nH]1 | inconclusive [inhibitor, full curve] |
| COc1ccc(C(=O)OCC(=O)N2CCCC2=O)c(OC)c1 | inactive |
| CC(C)CCN1CCN(Cc2ccc(C(F)(F)F)cc2)CC1CCO (stereo unspecified) | inactive |
| CCN(CCNC(=O)C1CCN(Cc2nc(-c3ccc(Cl)cc3)oc2C)CC1)c1ccccc1 | inactive |
| COc1cc2c(cc1OC)-c1nnc(-c3cccs3)n1C1(CCCC1)C2 | inconclusive [inhibitor, single point] |
| O=C(NCCc1c[nH]c2ccccc12)c1ccc(S(=O)(=O)NCc2ccco2)cc1 | inconclusive [inhibitor, single point] |
| COc1cc2[nH]c(=O)n(C3CCCCC3)c(=O)c2cc1OC | inconclusive [inhibitor, partial curve] |
| COc1ccc2c(c1)OCC(Cc1ccc(OC)c(OC)c1)C2O (stereo unspecified) | inactive |
| O=C(CSc1nnnn1C1CCCCC1)Nc1ccc(F)cc1 | inconclusive [inhibitor, single point] |
| COc1ccc(/C=N/NC(=O)c2cccc([N+](=O)[O-])c2)cc1OC(=O)c1ccccc1 | inconclusive [inhibitor, partial curve] |
